{
  "source": "PubChem BioAssay AID686979",
  "about": "(National Center for Advancing Translational Sciences (NCATS), 2013)",
  "note": "Screen size: about 420,000 compounds; about 50,000 (12%) were called active. Inconclusive means that the source gave no clear call. Such entries were picked first, then a sample of the others. Calls come from the whole dose curve; as a rule, active = well fitted inhibition curve with a large enough effect; inconclusive = small, poorly fitted or top-dose-only effect; inactive = flat fitted curve, though single readings scatter. Potencies of inconclusive entries are left out as doubtful fits. % is set by controls: 0 for no effect and ±100 for the full control effect; potency is the fitted concentration of half-maximal effect; tags give direction and shape of the fitted curve.",
  "data": [
    {"assay": "qHTS for Inhibitors of human tyrosyl-DNA phosphodiesterase 1 (TDP1): qHTS in cells in presence of CPT; note: nearly all actives have a fitted effect of over 55% in size", "conditions": "chicken DT40 Tdp1-/-;hTDP1 cells + 20 nM CPT, ATP luminescence, 48 h; activity change, negative = growth inhibition: at 46.2 µM (top of the series) unless noted", "how_it_was_run": "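Cell growth measured by CellTiter-Glo luminescence after a minimum 48 h, 37 C compound exposure with 20 nM CPT in Tdp1-knockout DT40 cells stably expressing hTDP1, seeded 400/well; qHTS titration format.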", "values": [
      {"smiles": "CCCC(=O)N1CCC1(C)C(=O)Nc1ccc2nc(C)ccc2c1", "note": "(centres undefined)", "Potency": "inactive"},
      {"smiles": "S=C(NCCCN1CCOCC1)N1CCN(c2cccc(Cl)c2)CC1", "Potency": "inconclusive [inhibitor, single point]"},
      {"smiles": "CC(=O)c1ccc(N2CCN(C(=O)c3cc4ccc5cccnc5c4[nH]3)CC2)cc1", "Potency": "active: 14.6 µM"},
      {"smiles": "CCn1c(=O)n(-c2cccc(Cl)c2)c(=O)c2sc3ccccc3c21", "Potency": "inconclusive [inhibitor, full curve, poor fit]"},
      {"smiles": "O=C(Nc1ccc(Cl)cc1)c1cc2nc(-c3ccc4c(c3)OCO4)cc(C(F)(F)F)n2n1", "Potency": "inconclusive [inhibitor, single point]"},
      {"smiles": "Cc1nc(C)c(CC(=O)N2CCc3c([nH]c4ccccc34)C2c2ccccn2)s1", "note": "(centres undefined)", "Potency": "inactive"},
      {"smiles": "C=C1CCN([C@@H](CC(C)C)C(=O)NCc2ccc(OC)cc2)S(=O)(=O)c2ccccc21", "Potency": "inconclusive [inhibitor, partial curve]"},
      {"smiles": "Cc1sc2c(c1C)c(=O)n(CCc1ccccc1)c(=O)n2Cc1ccc(F)cc1", "Potency": "inconclusive [inhibitor, single point]"},
      {"smiles": "Cc1ccc(C)c(S(=O)(=O)NCCc2csc(-c3ccc(Cl)cc3)n2)c1", "Potency": "active: 29.1 µM"},
      {"smiles": "COc1cc(OC)c(NC(=O)CCNS(=O)(=O)c2cc(Br)cnc2N)cc1Cl", "Potency": "inconclusive [inhibitor, single point]"},
      {"smiles": "N#CC1(NC(=O)COC(=O)c2cc(O)c3ccccc3c2O)CCCCC1", "Potency": "inconclusive [inhibitor, single point]"},
      {"smiles": "COc1ccc(OC)c(/C=C(\\C#N)c2nc3ccccc3c(=O)[nH]2)c1", "Potency": "inconclusive [inhibitor, single point]"},
      {"smiles": "O=c1ccc(S(=O)(=O)N2CCCC2)cn1Cc1ccc(Cl)cc1Cl", "Potency": "active: 20.6 µM"},
      {"smiles": "CC(C(=O)Nc1ccc(S(=O)(=O)N2CCCC2)cc1)N1CCN(c2ccccc2O)CC1", "note": "(centres undefined)", "Potency": "inconclusive [inhibitor, single point]"},
      {"smiles": "Cc1c(NC(=O)C2CC(c3cccc(Br)c3)=NO2)c(=O)n(-c2ccccc2)n1C", "note": "(centres undefined)", "Potency": "inactive"},
      {"smiles": "C[C@@H]1CN([C@H](C)CO)C(=O)CCCn2nncc2CO[C@H]1CN(C)C(=O)NC1CCCCC1", "Potency": "inactive"},
      {"smiles": "CC[C@]12c3[nH]c4cc(-c5ccco5)ccc4c3CCN1C(=O)[C@@H](CC(=O)NCc1ccc(OC)c(OC)c1)C[C@@H]2C(=O)N1CCN(C(=O)C2CC2)CC1", "Potency": "inconclusive [inhibitor, single point]"},
      {"smiles": "Cc1ccc(S(=O)(=O)NCC(=O)NCC(=O)NCCc2ccc(Cl)cc2)cc1C", "Potency": "inconclusive [inhibitor, single point]"},
      {"smiles": "COc1ccc(C2CC(=O)Oc3cc(C)c(Cl)c(C)c32)cc1", "note": "(centres undefined)", "Potency": "inconclusive [inhibitor, partial curve]"},
      {"smiles": "CCCCn1c(N)c(N(CCOC)C(=O)CN2C(=O)NC3(CC(C)CC(C)(C)C3)C2=O)c(=O)[nH]c1=O", "note": "(centres undefined)", "Potency": "inactive"},
      {"smiles": "Cc1cccc(OCC(O)CN2CC3(C)CC2CC(C)(C)C3)c1", "note": "(centres undefined)", "Potency": "inconclusive [inhibitor, single point]"},
      {"smiles": "COc1ccc(NS(=O)(=O)c2cc3c4c(c2)CCN4C(=O)CC3)cc1OC", "Potency": "inconclusive [inhibitor, single point]"},
      {"smiles": "CCOc1ncccc1C(=O)OCC(=O)Nc1ncc(C(F)(F)F)cc1Cl", "Potency": "inactive"},
      {"smiles": "CCc1ccc(NC(=S)NC(=O)CC(C)C)cc1", "Potency": "inconclusive [inhibitor, single point]"},
      {"smiles": "CCOC(=O)Cc1csc(NC(=O)CSc2nc(=O)[nH]c3c2CCC3)n1", "Potency": "inactive"},
      {"smiles": "Cn1c(SCC(=O)Nc2nccs2)nnc1-c1ccc(S(=O)(=O)N2CCCC2)cc1", "Potency": "inactive"},
      {"smiles": "Cc1ccc(NC(=O)CCn2c(=O)c3cccn3c3ccccc32)c(C)c1", "Potency": "inconclusive [inhibitor, single point]"},
      {"smiles": "CCOc1ccc(S(=O)(=O)NCCC(=O)NCC2(N3CCCCC3)CCCCC2)cc1", "Potency": "inactive"},
      {"smiles": "CCOC(=O)c1ccc2c(c1)[C@@H]1C=CC[C@@H]1[C@H](c1cccc(OC)c1OC)N2", "Potency": "inconclusive [inhibitor, single point]"},
      {"smiles": "CCOc1cc(NC(=O)c2cccs2)c(OCC)cc1NC(=O)c1ccccn1", "Potency": "inconclusive [inhibitor, full curve, poor fit]"},
      {"smiles": "O=S(=O)(Cc1noc(-c2ccc(OC(F)(F)F)cc2)n1)c1ccc(F)cc1", "Potency": "inconclusive [inhibitor, single point]"},
      {"smiles": "C/C(=N\\Nc1nc(N2CCOCC2)nc(N2CCOCC2)n1)c1cccc([N+](=O)[O-])c1", "Potency": "inactive"},
      {"smiles": "Cc1ccc(S(=O)(=O)N2CC(=O)Nc3ccccc32)c(C)c1NS(C)(=O)=O", "Potency": "inconclusive [inhibitor, full curve]"},
      {"smiles": "Cc1ccc2c(C(=O)CNc3nc(C)c(C)s3)c(C)[nH]c2c1", "Potency": "inconclusive [inhibitor, partial curve]"},
      {"smiles": "C=C1CCN([C@@H](CC(C)C)C(=O)NCc2cc(OC)c(OC)c(OC)c2)S(=O)(=O)c2ccccc21", "Potency": "inconclusive [inhibitor, single point]"},
      {"smiles": "O=C1OCCC1=COCCCCCOC=C1CCOC1=O", "Potency": "inactive"},
      {"smiles": "Cn1c(=O)c2ccccc2n2c(CCl)nnc12", "Potency": "active: 11.6 µM"},
      {"smiles": "COc1ccc(NS(=O)(=O)c2cccc(Cl)c2Cl)cc1S(=O)(=O)N1CCCCC1", "Potency": "inconclusive [inhibitor, single point]"},
      {"smiles": "Cc1cccc(C)c1OCCNC(=O)c1ccc2ccccc2n1", "Potency": "active: 20.6 µM"},
      {"smiles": "CC(=O)N=c1c(C#N)cc2c(=O)n3cccc(C)c3nc2n1CCCOC(C)C", "Potency": "inactive"},
      {"smiles": "Cc1noc(/C=C/N(C)C)c1S(=O)(=O)N1CCCC(C(=O)NCCC2=CCCCC2)C1", "note": "(centres undefined)", "Potency": "active: 20.6 µM"},
      {"smiles": "Cc1[nH]c2ccccc2c1CN1CCN(c2ccccn2)CC1", "Potency": "active: 2.31 µM"},
      {"smiles": "O=C(CS(=O)(=O)c1ccccc1)N(CCCN1CCOCC1)c1nc2c(F)cccc2s1", "Potency": "inactive"},
      {"smiles": "Cc1ccc(S(=O)(=O)NCc2ccccc2)cc1C(=O)N(C)Cc1ccccc1F", "Potency": "inconclusive [inhibitor, single point]"},
      {"smiles": "O=Cc1cc2c3c(c1)CCCN3CCC2", "Potency": "inconclusive [inhibitor, single point]"},
      {"smiles": "CC(C)CC(=O)N/C(N)=N/c1nc2ccccc2o1", "Potency": "inconclusive [inhibitor, single point]"},
      {"smiles": "CSc1ccc(CNC(=O)CN2C(=O)C3CCCCN3c3ccc(C(=O)N4CCCC4)cc32)cc1", "note": "(centres undefined)", "Potency": "inconclusive [inhibitor, single point]"},
      {"smiles": "COc1ccc(Cl)cc1-c1nc(-c2ccc(NC(=O)c3cccs3)cc2)no1", "Potency": "inconclusive [inhibitor, single point]"},
      {"smiles": "Cc1cnn(C(=S)NCCc2ccccc2)c1", "Potency": "inconclusive [inhibitor, single point]"},
      {"smiles": "COc1ccc(-c2csc(Nc3cc(C)ccn3)n2)cc1C", "Potency": "inconclusive [inhibitor, single point]"},
      {"smiles": "Cc1nc(C)c(CCNC(=O)c2cccc(Cl)c2)s1", "Potency": "inconclusive [inhibitor, full curve]"},
      {"smiles": "O=[N+]([O-])c1nn(-c2ccc3c(c2)OCCO3)n(O)c1=Nc1ccc(Cl)cc1", "Potency": "active: 23.1 µM"},
      {"smiles": "CCOC(=O)c1sc(NC(=O)CCCn2nc([N+](=O)[O-])cc2C)c(C(=O)OCC)c1C", "Potency": "inconclusive [inhibitor, single point]"},
      {"smiles": "O=C(CSc1nnc(-c2cccnc2)o1)Nc1ccc(Br)cc1", "Potency": "inactive"},
      {"smiles": "CCOC(=O)C1CCN(C(=O)c2ccc3c(c2)sc2nc(-c4ccc(C)cc4)cn23)CC1", "Potency": "inactive"},
      {"smiles": "CN(C)S(=O)(=O)c1cccc(NC(=O)CSc2nncn2-c2ccccc2)c1", "Potency": "inconclusive [inhibitor, single point]"},
      {"smiles": "CCN(CC)c1ccc(C(=O)OCc2cc(=O)oc3cc(O)ccc23)cc1", "Potency": "inconclusive [inhibitor, single point]"},
      {"smiles": "CNC(=O)c1cc(OCC(F)(F)F)ccc1OCC(F)(F)F", "Potency": "inconclusive [inhibitor, partial curve]"},
      {"smiles": "CCN(CC)S(=O)(=O)c1ccc(C(=O)NC2=C(C(=O)OC)SCC2)cc1", "Potency": "inconclusive [inhibitor, partial curve]"},
      {"smiles": "Cc1ccc(C(=O)O)cc1NC(=S)NC(=O)c1ccc(-c2ccccc2)cc1", "Potency": "inactive"},
      {"smiles": "O=C(NCCSSCCNC(=O)c1ccccc1)c1ccccc1", "Potency": "active: 18.4 µM"},
      {"smiles": "C=CCn1c(C)cc(C(=O)CN2C(=O)c3ccccc3C2=O)c1C", "activity change, negative = growth inhibition": "inconclusive: -30.3% [inhibitor]"},
      {"smiles": "c1ccc(CCN2CN=C(Nc3nc4ccccc4s3)NC2)cc1", "Potency": "inconclusive [inhibitor, single point]"},
      {"smiles": "FC(F)(F)c1ccc(-c2noc(-c3ccccc3Br)n2)cc1", "Potency": "active: 16.4 µM"},
      {"smiles": "CCCc1nc(SCC(=O)Nc2nccs2)c2ccccc2n1", "Potency": "inactive"},
      {"smiles": "Cc1ccc(C)c(N2N=C(C(=O)Nc3cccc(S(=O)(=O)N4CCCCC4)c3)CCC2=O)c1", "Potency": "inconclusive [inhibitor, single point]"},
      {"smiles": "Cc1ccccc1OC1CCN(C(=O)C2CCC(=O)N(C3CCCC3)C2)CC1", "note": "(centres undefined)", "Potency": "inconclusive [inhibitor, single point]"},
      {"smiles": "CN(C)CCCN1C(=O)c2cc3ccccc3cc2C1=O", "Potency": "inactive"},
      {"smiles": "S=c1[nH]nc(CSc2nc3ccccc3s2)n1C1CCCCC1", "Potency": "inconclusive [inhibitor, single point]"}
    ]}
  ]
}
